# In paper PMC11995724, “Antibiotic target discovery by integrated phenotypic and activity-based profiling of electrophilic fragments” (Cell chemical biology, 2025):
# Screen size: about 3,200 compounds; about 110 (3.4%) showed an effect of 50% or more. This is one part of the list.
# System: T1, V. cholerae SAD30
# T1 construct: SAD30
# Set-up: species or system S. aureus MSSA476 (TSB) or V. cholerae SAD30 (LB); 384-well bacterial growth screen at 25 uM, OD600 relative to DMSO control
# Conditions: relative growth, OD600, LB; 25 µM; inhibitor
row,SMILES,% of control remaining [%]
1,"Cc1c(Cl)cccc1NC(=O)C(C#N)=Cc1cccs1 [9-B05, N-(3-chloro-2-methylphenyl)-2-cyano-3-(thiophen-2-yl)prop-2-enamide]",81.7811
2,"CC(Cl)C(=O)NCCc1ccnn1C (stereo not drawn) [7-I21, 2-chloro-N-[2-(1-methyl-1H-pyrazol-5-yl)ethyl]propanamide]",82.6037
3,"Cc1cc(C)c(C=C(C#N)C(=O)Nc2nccs2)cc1C [8-P21, 2-cyano-N-(1,3-thiazol-2-yl)-3-(2,4,5-trimethylphenyl)prop-2-enamide]",89.5309
4,"CC(c1cccc([N+](=O)[O-])c1)N(C)C(=O)CCl (stereo not drawn) [6-G06, 2-chloro-N-methyl-N-[1-(3-nitrophenyl)ethyl]acetamide]",96.6158
5,"C=CC(=O)Nc1nc(-c2cccs2)cs1 [1-D08, N-[4-(thiophen-2-yl)-1,3-thiazol-2-yl]prop-2-enamide]",74.5829
6,"CC(Cl)C(=O)NCCC1=CCCCC1 (stereo not drawn) [6-E11, 2-chloro-N-[2-(cyclohex-1-en-1-yl)ethyl]propanamide]",84.7853
7,"N#CC(=Cc1ccc(F)cc1)C(=O)Nc1ccccc1C(F)(F)F [8-I18, 2-cyano-3-(4-fluorophenyl)-N-[2-(trifluoromethyl)phenyl]prop-2-enamide]",71.8559
8,"O=C(CCl)NCC1(c2ccc3c(c2)OCCO3)CCCC1 [4-I11, 2-chloro-N-{[1-(2,3-dihydro-1,4-benzodioxin-6-yl)cyclopentyl]methyl}acetamide]",93.5087
9,"C=CC(=O)NCc1ccsc1S(N)(=O)=O [2-J15, N-[(2-sulfamoylthiophen-3-yl)methyl]prop-2-enamide]",79.5426
10,"CC(Cl)C(=O)N[C@H]1C[C@H](C)S(=O)(=O)c2sccc21 (stereo partly drawn) [6-B22, 2-chloro-N-[(2S,4S)-2-methyl-1,1-dioxo-2H,3H,4H-1lambda6-thieno[2,3-b]thiopyran-4-yl]propanamide]",103.289
11,"Cc1ccc(C(=O)c2ccccc2)c(NC(=O)CCl)c1 [4-B19, N-(2-benzoyl-5-methylphenyl)-2-chloroacetamide]",97.1318
12,"N#CC(=Cc1ccsc1)C(=O)Nc1cccc2ccccc12 [9-M09, 2-cyano-N-(naphthalen-1-yl)-3-(thiophen-3-yl)prop-2-enamide]",88.4432
13,"C=CC(=O)Nc1ccccc1C1CC1(F)F (stereo not drawn) [1-M15, N-[2-(2,2-difluorocyclopropyl)phenyl]prop-2-enamide]",84.006
14,"COc1ccc(NC(=O)CCl)cc1S(=O)(=O)N(C)C [4-E15, 2-chloro-N-[3-(dimethylsulfamoyl)-4-methoxyphenyl]acetamide]",96.4417
15,"N#CC(=Cc1ccc(OC(F)F)cc1)C(=O)Nc1nccs1 [8-F14, 2-cyano-3-[4-(difluoromethoxy)phenyl]-N-(1,3-thiazol-2-yl)prop-2-enamide]",66.4174
16,"N#CC(=Cc1ccc(-c2ccc(Cl)cc2)o1)C(=O)NC1CC1 [9-K16, 3-[5-(4-chlorophenyl)furan-2-yl]-2-cyano-N-cyclopropylprop-2-enamide]",84.3644
17,"CC(Cl)C(=O)Nc1ccccc1C(=O)c1ccccc1 (stereo not drawn) [6-G10, N-(2-benzoylphenyl)-2-chloropropanamide]",77.505
18,"CS(=O)(=O)N1CCC(N(CC(F)F)C(=O)CCl)CC1 [5-O12, 2-chloro-N-(2,2-difluoroethyl)-N-(1-methanesulfonylpiperidin-4-yl)acetamide]",98.3503
19,"C=CC(=O)N[C@H]1C[C@H](S(C)(=O)=O)C1 [3-D18, N-[(1r,3r)-3-methanesulfonylcyclobutyl]prop-2-enamide]",105.146
20,"C=CC(=O)NCc1ccnc(N2CCN(c3ccc(F)cc3)CC2)c1 [1-M11, N-({2-[4-(4-fluorophenyl)piperazin-1-yl]pyridin-4-yl}methyl)prop-2-enamide]",80.7175
21,"C=CC(=O)N(C)Cc1ccnn1CC [1-F07, N-[(1-ethyl-1H-pyrazol-5-yl)methyl]-N-methylprop-2-enamide]",93.2735
22,"C=CC(=O)N1CCC(C(=O)OCC)(S(C)(=O)=O)CC1 [3-H04, ethyl 4-methanesulfonyl-1-(prop-2-enoyl)piperidine-4-carboxylate]",101.264
23,"Cc1cc(S(=O)(=O)N(C)C)cc(NC(=O)CCl)c1C [4-H15, 2-chloro-N-[5-(dimethylsulfamoyl)-2,3-dimethylphenyl]acetamide]",102.825
24,"CC(Cl)C(=O)Nc1ccc(Cl)cc1F (stereo not drawn) [4-C14, 2-chloro-N-(4-chloro-2-fluorophenyl)propanamide]",93.1637
25,"C=CC(=O)NC(Cn1cncn1)c1ccccc1 (stereo not drawn) [3-F17, N-[1-phenyl-2-(1H-1,2,4-triazol-1-yl)ethyl]prop-2-enamide]",90.6782
26,"C=CC(=O)NCC(O)c1ncccc1OC (stereo not drawn) [2-J11, N-[2-hydroxy-2-(3-methoxypyridin-2-yl)ethyl]prop-2-enamide]",90.6591
27,"C=CC(=O)N1CCC(NC(=O)Nc2ccccc2OC)CC1 [1-K13, 3-(2-methoxyphenyl)-1-[1-(prop-2-enoyl)piperidin-4-yl]urea]",84.1555
28,"CC(=O)NC1Cc2ccccc2N(C(=O)CCl)C1 (stereo not drawn) [5-M20, N-[1-(2-chloroacetyl)-1,2,3,4-tetrahydroquinolin-3-yl]acetamide]",100.368
29,"COc1ccc(C=C(C#N)C(=O)Nc2ccc(Cl)c(Cl)c2)cc1 [8-C03, 2-cyano-N-(3,4-dichlorophenyl)-3-(4-methoxyphenyl)prop-2-enamide]",89.395
30,"COc1ccc(C(=O)C(C)Cl)cc1 (stereo not drawn) [10-H22, 2-chloro-1-(4-methoxyphenyl)propan-1-one]",106.916
